Laboratory results reported in PubChem BioAssay AID624170 (National Center for Advancing Translational Sciences (NCATS), 2012).
Among all 410,000 compounds or so, about 850 (0.21%) were called active. Inconclusive results, whose numbers are uncertain, are shown with a selection of clear calls. Calls come from the whole dose curve; as a rule, active = well fitted inhibition curve with a large enough effect; inconclusive = small, poorly fitted or top-dose-only effect, or another doubt; inactive = no such curve, though single readings can be large or run the other way. Potencies of inconclusive entries are left out as doubtful fits.

molecular target: Glutaminase kidney isoform, mitochondrial (Homo sapiens) (UniProt O94925); test: qHTS for Inhibitors of Glutaminase (GLS); settings: GLS enzymatic activity, qHTS titration; series mostly up to 45.5 µM
Procedure, shortened: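 Compounds were pin-transferred onto hKGA, after which L-glutamine (1 mM solution) and a detection mix of glutamate oxidase, HRP and Amplex Red were added. Initial and 30 min RT fluorescence reads were collected.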
Potency is the fitted concentration of half-maximal effect; tags give direction and shape of the fitted curve.

Sequence of UniProt O94925 (O94925 whole entry, looked up, canonical isoform): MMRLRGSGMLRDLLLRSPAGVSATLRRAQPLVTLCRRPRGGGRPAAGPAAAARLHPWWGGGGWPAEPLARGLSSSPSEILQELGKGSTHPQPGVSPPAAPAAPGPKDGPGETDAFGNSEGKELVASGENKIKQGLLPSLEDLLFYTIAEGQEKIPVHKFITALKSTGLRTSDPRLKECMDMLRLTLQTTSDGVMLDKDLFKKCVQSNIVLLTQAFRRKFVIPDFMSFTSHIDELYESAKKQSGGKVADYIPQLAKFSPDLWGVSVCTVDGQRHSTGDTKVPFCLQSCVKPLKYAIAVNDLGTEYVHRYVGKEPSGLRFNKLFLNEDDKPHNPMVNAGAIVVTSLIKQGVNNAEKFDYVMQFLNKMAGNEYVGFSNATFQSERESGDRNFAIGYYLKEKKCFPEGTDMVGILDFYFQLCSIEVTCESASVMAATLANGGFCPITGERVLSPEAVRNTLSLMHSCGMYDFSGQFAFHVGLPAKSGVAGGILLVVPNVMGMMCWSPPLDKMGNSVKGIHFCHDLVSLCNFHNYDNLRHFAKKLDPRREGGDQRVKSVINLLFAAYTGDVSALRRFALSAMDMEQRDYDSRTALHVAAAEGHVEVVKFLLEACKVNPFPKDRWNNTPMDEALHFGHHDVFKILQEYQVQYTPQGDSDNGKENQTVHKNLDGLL

| SMILES | Potency |
| --- | --- |
| CCS(=O)(=O)N1CCN(CC(=O)NC2CCCCC2)CC1 | inactive |
| COc1ccc(Cl)cc1NC(=O)c1c(NCc2ccc(C)o2)sc2c1CCCCC2 | inconclusive [inhibitor, single point] |
| COc1ccc(NC2c3ccccc3C(=O)N2Cc2ccc3c(c2)OCO3)cc1 (stereo not drawn) | inconclusive [inhibitor, single point] |
| COc1ccc(OCc2cccc(C(=O)NN)c2)cc1 | inactive |
| Cc1nnc(N/N=C/c2ccco2)n1N | inconclusive [inhibitor, partial curve] |
| CCCNC(=O)CCn1c(=S)oc2ccccc21 | inconclusive [inhibitor, single point] |
| Cc1ccc(C(=O)O)cc1-c1ccc(/C=C2/NC(=O)N(c3ccccc3)C2=O)o1 | inconclusive [inhibitor, single point] |
| Cc1ccc(Cl)cc1N1CCN(CC(O)COC(C)C)CC1 (stereo not drawn) | inactive |
| COc1ccc(C(=O)NCC(c2cccnc2)N2CCc3ccccc32)cc1 (stereo not drawn) | inconclusive [inhibitor, single point] |
| CCOc1ccccc1NC(=O)CSc1nc2c(oc3ccccc32)c(=O)n1-c1ccc(C)c(C)c1 | inactive |
| CCn1c(CSc2nc3ccccc3s2)nnc1SCC(=O)c1ccc(Cl)cc1 | inconclusive [inhibitor, single point] |
| O=C(O)/C=C/c1ccc([N+](=O)[O-])o1 | active: 11.2 µM |
| Nc1nc(-c2ccccc2)c(N=Nc2cccc3ccccc23)s1 | inactive |
| O=C(NCCCN1CCCC1=O)c1ccc2c(=O)n(Cc3ccco3)c(=S)[nH]c2c1 | inconclusive [inhibitor, single point] |
| CNc1ccc2ncc(-c3cccc(C(=O)N(C)C)c3)n2n1 | inactive |
| CN(C)c1nc(Nc2ccc(Cl)c(Cl)c2)nc(N(C)C)n1 | inconclusive [inhibitor, single point] |
| CCOc1ncccc1C(=O)OCC(=O)N1CCN(S(=O)(=O)c2ccc(Cl)cc2)CC1 | inconclusive [inhibitor, single point] |
| C=CCn1c(SCCC)nc(O)cc1=O | inconclusive [inhibitor, single point] |
| Cc1ccccc1Cn1c(=O)n(Cc2ccc(Cl)cc2)c(=O)c2cccnc21 | inactive |
| Cc1nc2c3ccccc3nc(NNC(=O)CCC(=O)NCCC(C)C)n2n1 | inconclusive [inhibitor, partial curve] |
| CC(C)(C)NC(=O)NC(=O)CN1CCN(c2ccc(O)cc2)CC1 | inconclusive [inhibitor, partial curve] |
| Cc1ccc(S(=O)(=O)NCC(c2cccnc2)N2CCc3ccccc32)cc1 (stereo not drawn) | inactive |
| O=C(CSCc1ccccc1Cl)NN=C1CCCCCC1 | inconclusive [inhibitor, single point] |
| CCOc1ccc(/C=C2/SC(=S)N(CCC(=O)Nc3ccc(C(=O)O)cc3)C2=O)cc1 | inconclusive [inhibitor, single point] |
| O=C(COc1ccccc1)Nc1cc(NC(=O)COc2ccccc2)cc(C(=O)O)c1 | inconclusive [inhibitor, partial curve] |

| SMILES | Potency |
| --- | --- |
| O=C(NCc1ccco1)c1cc2c(s1)CCCCC2 | inactive |
| COc1ccc(NC(=O)N(C)C[C@H]2Oc3ccc(NS(=O)(=O)c4cccs4)cc3C(=O)N([C@H](C)CO)C[C@@H]2C)cc1 | inactive |
| COc1ccc(CCNC(=O)c2ccc(OCC(=O)N3CCOCC3)c(OC)c2)cc1 | inactive |
| CC(=O)C1=C(c2ccccc2)OC(N)=C(C#N)C1c1ccccc1C (stereo not drawn) | inactive |
| COC(=O)[C@]1(C)N[C@H](CN(C)S(=O)(=O)c2ccc(-c3ccccc3)cc2)[C@@H]2C(=O)N(Cc3ccccc3)C(=O)[C@@H]21 | inactive |
| Cc1ccc2nc(-c3cccc(Br)c3)c(Cc3ccccc3C(F)(F)F)n2c1 | inconclusive [inhibitor, single point] |
| COc1cc(/C=C/C(=O)OCC(=O)Nc2ccc(NC(C)=O)cc2)cc(S(=O)(=O)N2CCc3ccccc32)c1OC | inactive |
| Cc1onc(-c2c(F)cccc2Cl)c1C(=O)N[C@@H]1C(=O)N2[C@H]1SC(C)(C)[C@H]2C(=O)O | active: 3.55 µM |
| CCOC(=O)c1oc2nc(C)c3c(c2c1N)CC(C)(C)OC3 | inconclusive [inhibitor, single point] |
| COC(=O)c1ccc(CCc2cc(O)c(Br)cc2O)cc1 | inconclusive [inhibitor, single point] |
| CC1(C)CCCN(C(=O)c2coc(=O)c(Br)c2)C1 | active: 10 µM |
| CCOC(=O)C1=C(C)N=c2s/c(=C/c3cccc([N+](=O)[O-])c3O)c(=O)n2C1c1ccc(OC)cc1OC (stereo not drawn) | inconclusive [inhibitor, single point] |
| Cc1cccc(C)c1NC(=O)NC1(C(=O)NCCN2CCOCC2)CCCCC1 | inconclusive [inhibitor, full curve] |
| O=C1CCCC(=O)N1c1ccc(N2CCOCC2)c([N+](=O)[O-])c1 | inconclusive [inhibitor, single point] |
| C=CC(=O)NCCCc1cc(C(C)(C)C)c(O)c(C(C)(C)C)c1 | inconclusive [inhibitor, single point] |
| CC(C)(C)n1[nH]c2c3c(ccc2c1=O)C(=O)c1ccccc1C3=O | inconclusive [inhibitor, single point] |
| Cc1ccc2c(c1)c1c(n2CC(O)CN2CCC(C)CC2)CCCC1 (stereo not drawn) | inactive |
| COc1ccc(NC2CC(=O)N(c3cc([N+](=O)[O-])ccc3C)C2=O)cc1 (stereo not drawn) | active: 7.08 µM |
| Oc1cc(O)c2c(c1)O[C@H](c1ccc(O)c(O)c1)[C@H](O)C2 | inactive |
| CCc1ccc(NC(=O)C2CCN(S(=O)(=O)c3ccc4[nH]c5c(c4c3)CCCCC5)CC2)cc1 | inactive |
| O=C(CCN1CCN(c2ccccc2)CC1)N/N=C/c1ccc(O)c(O)c1O | inconclusive [inhibitor, full curve] |
| OC(COCc1ccccc1)COCc1ccccc1 | inactive |
| Cc1ccc(C(=O)O)cc1Nc1nc2ccccc2n2nnnc12 | inactive |
| COc1cc([N+](=O)[O-])ccc1NC(=O)CN1CCc2cc(OC)c(OC)cc2C1 | inactive |
| COc1ccccc1C(=O)O/N=C1/CCCc2c1ccc(OC)c2[N+](=O)[O-] | inactive |

| SMILES | Potency |
| --- | --- |
| O=C(CSc1n[nH]c(-c2ccccc2Cl)n1)N1CCN(c2ccccc2)CC1 | inactive |
| O=C(/C=C/c1ccc(OC(F)F)cc1)OCC(=O)N1CCC(c2ccccc2)=N1 | inactive |
| CCOc1ccccc1NC(=O)c1c(NC(=O)c2ccccc2)sc2c1CCCC2 | inactive |
| Cc1ccc(/C=C2/C(=O)ON=C2c2ccccc2)o1 | inconclusive [inhibitor, single point] |
| CCCN1C2=NCCN2c2ccccc21 | inconclusive [inhibitor, single point] |
| CC(C)Cn1c(N)c(C(=O)COC(=O)c2cc(-c3ccco3)nc3ccccc23)c(=O)n(C)c1=O | inconclusive [inhibitor, single point] |
| O=C(Cn1ccc2ccccc2c1=O)NCCC(=O)N1CCN(c2cccc(Cl)c2)CC1 | inactive |
| CC(=O)N1CCN(c2ccc(NC(=O)COc3ccc(Cl)cc3Cl)cc2)CC1 | inconclusive [inhibitor, single point] |
| NNc1nc2cccnc2n(CCNc2ncc(C(F)(F)F)cc2Cl)c1=O | inconclusive [inhibitor, partial curve] |
| COc1ccc(NC(=S)NNC(=O)c2cccs2)cc1 | inactive |
| Cc1ccc(C(=O)NCc2occc2C(=O)O)o1 | inconclusive [inhibitor, single point] |
| O=c1[nH]c2ccccc2nc1/C=C/c1ccc(Cl)cc1 | inconclusive [inhibitor, single point] |
| CCCCN(CCCC)S(=O)(=O)c1ccc(N2CCCC2=O)c([N+](=O)[O-])c1 | inconclusive [inhibitor, single point] |
| COc1cccc2cc(C(=O)CS(=O)(=O)c3ccc(Cl)cc3)c(=O)oc12 | inactive |
| CC1=NN(c2ccc(C)cc2C)C(=O)C1C(c1cccc(O)c1)C1C(=O)N(c2ccc(C)cc2C)N=C1C (stereo not drawn) | inconclusive [inhibitor, partial curve] |
| O=c1c2c(-c3ccccc3)ccnc2[nH]n1-c1ccccc1 | inconclusive [inhibitor, single point] |
| COc1ccc(OC)c(CCNC(=O)c2ccc3c(=O)[nH]c4c(C(=O)NC(C)C)sc(=S)n4c3c2)c1 | inconclusive [inhibitor, single point] |
| COc1ccc(OC)c2c(C)cc(NCCN3CCOCC3)nc12 | inconclusive [inhibitor, single point] |
| CCc1ccc(OCC(=O)N/N=C\c2ccco2)c([N+](=O)[O-])c1 | inactive |
| Cc1cc(C)nc(N2CCCC(C(=O)NCCc3ccccc3F)C2)n1 (stereo not drawn) | inactive |
| O=Cc1ccc2oc3nc4n(c(=O)c3c(=O)c2c1)CCCS4 | inconclusive [inhibitor, partial curve] |
| COc1cccc(/C=N/NC(=O)C(=O)N/N=C/c2cccc(OC)c2O)c1O | inactive |
| CC(C)(C)c1cc(-c2n[nH]c(=S)n2-c2ccccc2F)n[nH]1 | inconclusive [inhibitor, partial curve] |
